Test results taken from a collection of fitness landscapes (doi:10.1016/j.celrep.2020.107928).
Whole data set: some 81,000 sequences, median “one-hybrid fitness for binding parS DNA” near -0.17, cut for the highest 2% near 0.51. This is one part of the list.

B1: Caulobacter ParB omega fusion; a variant is named by its letters at X, in order, B8GW30 (parent)
chain: MESVVVGEPGMSEGRRGLGRGLSALLGEVDAAPAQAPGEQLGGSREAPIEILQRNPDQPRRTFREEDLEDLSNSIREKGVLQPILVRPSPDTAGEYQIVAGERAWRAAQRAGLKTVPIMVRELDDLAVLEIGIIENVQRADLNVLEEALSYKVLMEKFERTQENIAQTIGKSXSHVANXMRLLXLPDEVQSYLVSGELTAXHARAIAAAADPVALAKQIIEGGLSVRETEALARKAPNLSAGKSKGGRPPRVKDTDTQALESDLSSVLGLDVSIDHRGSTGTLTITYATLEQLDDLCNRLTRGI

Variants of: B1
Test: one-hybrid fitness for binding parS DNA (scaled: cognate 1, non-cognate 0); higher = stronger binding
Conditions: with parS DNA site
Method in brief: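 Fitness here means the log change in variant-to-wild-type read ratio between plasmids sequenced before and after selection. That scale was set so cognate equals 1 and non-cognate equals 0. The selection was a bacterial one-hybrid screen of Caulobacter ParB libraries, four specificity codons randomised, in E. coli USO carrying a HIS3 reporter with the site 19 bp from the promoter, grown 48 hours at 37°C on M9-minus-histidine with 0.1 mM IPTG and 5 mM 3-AT.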

one-hybrid fitness for binding parS DNA, 0.582:
RTMA

one-hybrid fitness for binding parS DNA, 0.727:
RRQG

one-hybrid fitness for binding parS DNA, 0.238:
RAMF

one-hybrid fitness for binding parS DNA, ≤ 0.2:
VAMA
AYNN
LEPV
MWVR
QTTE
LLVA
HSTN
RSEH
TSIC
RREV
HKIS
VAKC
GRYL
QGVT
YEAN
PCAK
SVSF
HLLL
LPLG
YDAM
SISG
AWKS
PGCA
STPI
QYSV
AASS
KLPT
WCHG
QMFV
MRPE
LAVM
IPKS
PPHM
IKSR
CRCT
KCNR
VYMR
NVHR
LMKM
PILV
NQLW
YAAE
RVVR
NTRI
HRAR
GEKG
SYDT
CKQC
GDME
QMTV
QTHY
ESYS
KAPT
PFKC
WPWT
VHPH
YPKV
FPSG
SCEN
VFQR
PSLA
AKIC
EAHS
VPNG
GDRG
MDLS
SRQM
NHDG
ADIR
NWNE
EEER
RMMR
EWAW
PLTL
SVRY
LHCR
QGWC
YPAE
ANPM
AMMG
SVQF
EVKT
CRIC
QEPN
YLYL
CHST
VTMV
PLHC
MDTE
GTGE
IWAG
KICD
MQSC
HTRW
CDYF
VCMS
EHNG
HNTA
TMCA
AAFR
WEYS
FNYS
WACT
GGTE
DFKE
NYLE
SPGA
NNWG
TSNA
MDSM
THFG
HAQW
AFRG
THWS
RTFV
SMQR
AKCD
FALR
SETG
MFRR
TEPH
CTVS
TWQG
NWPG
PYAK
AARP
VQPT
FICR
NDQT
AVPR
PMMT
NPGC
QFFS
DHPM
GPGG
RAGL
KYHP
YPAG
AQEC
DVTS
WAKM
GLEE
WRRY
PACL
GPSG
TSSS
RKSK
GYRT
TNVG
YNSL
LTPT
TYIG
LRFF
NPDI
RTWK
LIYH
KVLR
PDSM
KNTC
TKKT
HRCQ
RDPR
VMDM
WQHG
WTYC
MSIN
CEKS
PYDI
NATM
QWPV
MPIS
VRVC
PKRH
FGAA
IWSK
RRCH
GINA
KQKA
ASRE
IRHT
IRHP
GARW
AEWH
HPQR
SYKQ
CRTS
VDRE
TGIP
GSKR
GQLT
IHLR
PGLY
EHRN
FSSC
KCGN
QRDL
DPTR
TPTC
CEVR
AKQT
RTKL
KMAC
GASD
TNQE
PRQY
VTQC
MCAT
YLIL
NYHY
QPWC
VHST
LSEG
TIHS
APSK
RFPN
ISWC
TSNR
KRKL
QANT
GRFE
ILVY
AYVC
KLVV
NHFR
CRSG
DLMH
TCYV
AVRL
SSFE
HGQT
KTTE
RPWS
WANC
KARE
MYRF
VNLE
HYSG
LLWK
DTHA
TYAC
LLGS
SENV
SDWM
EGQC
ACRN
VMNA
LLMY
QSED
YCYF
KDTC
RAQR
QTCG
LKIC
PRQT
IKEV
INLG
TFYF
MHIY
CTAF
TPSC
NGGV
TGCD
EWLR
KKCN
CCGT
PNAD
FVWC
TTVI
CCVE
THAS
HSDM
THHC
LDQT
MTHS
MICR
LRWY
LSSD
TMCG
FRLG
IDQR
LLVL
VMES
VPEG
GSLF
PTYQ
IHSC
DCWS
PIPD
DIAV
TSGI
IANN
VMSC
HPGQ
KFLG
MRHF
KDLS
GQYL
MAAI
QSFV
IMER
GDIY
PLAV

one-hybrid fitness for binding parS DNA, 0.289:
WVWS
